# According to the RNAGym collection of RNA variant scans (doi:10.7554/elife.90254):
# Read counts are not given, so values of variants with three or more changes are uncertain.
# B1: LINE1-mini (parent)
# chain: GGCAGAGCUCAACACAGCGUGGCAAAGUGGCUGUGGCUAGACUGCC
# Variants of: B1
# Assay: self-cleavage, relative activity (ratio to wild type); higher = more cleavage; in vitro, sequencing; the parent is a self-cleaving ribozyme
row,Variant,self-cleavage
1,G7C C23A U38A A41C,0.08
2,C8U G22U C23U G36A,0.74
3,C3G C13U G21U A41G C45U,0.18
4,G1U C8A A24C,0.09
5,A11U G22A C37A,0.02
6,A11C C15A C31A G33U C42G,0.02
7,G7A C10G A16G C18U,0.02
8,G1U C18G C46A,0.07
9,C15A G29C G35U C45A,0
10,G17U G21U G27U,0.92
11,C8U G21A G22A U43C,0.01
12,G2U A14C G40A,0
13,G27C A41C C42G,0
14,G30U C31G C42U,0.08
15,G2U A12U C15U C18A,0.01
16,G1U A6G C10G C13G G36A A39G C42A,0
17,A16C A26U G30U C46U,0.09
18,G7C A12U C15G G22C A39G C42U,0.02
19,C8A A16U G22C C37U,0.11
20,G2C C3U C37G,0.25
21,C31A C42G G44U,0.08
22,G7A C18A G27C G30A G33U,0.03
23,G7C A26G G30A C37G U38A G40C,0.17
24,C3A A6G C31U A39G,0.11

row,Variant,self-cleavage
1,G1A C15G C42G,0.05
2,A12C U20C G22A A25C U38G,0.02
3,C8U A16G A39G,0.08
4,C8U A14C G21C G33U,0.01
5,A6C G19C G33U G35C A41C,0.05
6,G22A A26U U43A G44A,0.12
7,C15A G21U U32A,0.01
8,G2A A41C U43A,0.23
9,G2U C10U A26G G40C,0
10,G7A G19A G33C G36C,0.05
11,C15A A16C A26C G30U G33C C37G,0.06
12,A4G G5U A14U C23G C46U,0.06
13,G22U C23A A26G,0.61
14,A4G A6U G22C A24U,0.15
15,A12U A16G C31U G40C,0.02
16,G21C G30A G33C,0.03
17,C3G G5C C15A G29A G35A C45A,0.04
18,G22A G33C G40C C42U U43A,0.01
19,C13G A14G A25C G40A C45A,0.11
20,G21C C23A U38C,0.17
21,C15G G17C G21A A25C,0.05
22,G7A A12C G40A,0.03
23,A12C G21U G22A A26C G36U C37U G40A,0.14
24,A12G A16G A41G G44U,0.07

row,Variant,self-cleavage
1,A4U C13A G22C G29U U38A,0
2,G27A U43G C46A,0.01
3,G5U C8A C13G G19A C45A,0.05
4,A11C A14U C15G U38G,0.03
5,C18U G22U A26U,0.27
6,C3U G22C G27C G29U,0.08
7,G1C C18G A25C A26U U28G C42A,0
8,U20G G21A A39C,0.05
9,G2A A12U G35U,0.05
10,C23G U34G G44A C46A,0.03
11,G17U G19U U43C C46A,0.03
12,C8U U9A A11G G40U,0.03
13,G5A A11U U38C G40U,0.04
14,G2C G21C C31U U38C G44A C45A,0.27
15,A6U G7A U32A,0.02
16,C10A G22A A25C G30U C42U,1.03
17,G1A C23A G33U U34C,0.06
18,G2U C8G A12G C18A A24C G33A U34C G35U,0
19,G19U G30C C31A C46U,0.21
20,A24U G36C C37G,0.07
21,C15A G29C G44U,0.02
22,A4G A16U G19U U38A,0.09
23,G1C A6C A12U G29U C45A,0
24,C10A C13A A26G,0.05

row,Variant,self-cleavage
1,C15U G17U C37A,0.01
2,A6C G19U A25C U34G C37G U38A U43C,0.03
3,C15A G17A C37U C42U,0.03
4,G7A C18U C45U,0.16
5,C18G G33C C37A,0.07
6,G2C A4G G5A U9G G36U,0.07
7,C15U A25C U34A G36C C37A,0.05
8,C3G G44A C45U,0.08
9,C15G G36C C46U,0.01
10,A6U G7U A41U U43G,0.19
11,A26G U28A U32G,0.1
12,A12C G22U U34C C46U,0
13,A14G G17U A41U C42U,0.12
14,C10U A16G G22A A25U,0.41
15,G2C C10G A26C,0.01
16,C18A U28A U34A A41C,0
17,A4U C23G U32C,0.05
18,C23A A26G C31U,0.05
19,U9A C15U A16U A26C G36A,0.04
20,G29C G36A A41C,0.02
21,C3G G7U A14U C23U,0.77
22,G21A G33U G36A,0.06
23,G2A C23A A41C,0.07
24,G1C C10G G33A,0.01

row,Variant,self-cleavage
1,G2U A4U A11U A16G G44A,0.02
2,G1U G7C C15U C18G,0.02
3,C23U U28G C37G,0
4,A12U A14U U32A,0
5,G7C U28A U38C G40U,0.15
6,G5C A6C G7C U9C,0.06
7,A6G G19U U20G G22A A26G G40A,0.07
8,G5U A12U A24C,0.03
9,G17U G36A U38C,0.02
10,A39U G44C C46G,0.05
11,C18A G27C C31G C46A,0.01
12,C8A C18A A24C A41C,0.03
13,U28C G29U A41U C45U,0.02
14,C3G A4U G5C C13A,0.57
15,G5A C37G C42G,0.01
16,G1U C10A G17U C46A,0.04
17,G5C C8A G40U,0.14
18,A6U G7A G19A G29C,0.52
19,U9A A14C U34C G36C C37U,0.01
20,G1C C10U U34A,0.02
21,A6C C18G G22A U38G,0.02
22,A25G C31A C37G G44C,0.05
23,G1U A6C G35U G36A,0.01
24,A4G A26U G27A G35A,0.07

row,Variant,self-cleavage
1,A14U G17C C23A C31G,0.06
2,A12G C31A G40C U43G,0.12
3,C3G A4U C8U G44U,0.18
4,G19U U28C G40C,0.09
5,C15U G22C G29U,2.66
6,G2A C8A G33U U43C,0.31
7,C3G A4U G29A,0.16
8,G22U G33U G44C,0.05
9,A26C G30A G33U C37A,0.03
10,G7U C8A G29A,0.11
11,G1A A12U U34C A41C,0.03
12,A12C G21C C45G,0
13,G1U G5U C45G,0.05
14,G19A G27U U28C U38C C42A,0.06
15,G2A C3G C23A A25C G27U,0.51
16,A11G A24G C37A,0.01
17,A16G C31A C37A,0.1
18,C3U A14C C42U,0.04
19,G17U C18A G44U,0.04
20,G17A G27C A39G,0.07
21,G21U G22C C46G,1.21
22,G7C G30U G36U A41C,0.15
23,G1C G2A C18G G29C C37A A41G,0.02
24,A4C G7C G19U G22U U28C U43G C45A,0.01

row,Variant,self-cleavage
1,A11C C23U A25U A26U A41U,0.07
2,C13G A14C C31G,0.02
3,C13A G19U A26U,0.41
4,C8G A16G G27A G35A C45G,0.04
5,C3U C8A C37G,0.22
6,G1A C8U A11C G21C U34G C45A,0.01
7,A4G G5C G36C,0.14
8,C3A C23G G29C,0.1
9,A14U A16U U43C C46A,0.04
10,C15G G19C G35U,0.06
11,C13U C15A G35C,0.01
12,A11U G36U G44U C46U,0
13,G27A G33U C37G A39C,0.02
14,G17U U34G U38G,0.08
15,G5A U20G U32A C37U,0.01
16,A25G U32A G35U,0.11
17,C10G A11G G19C G27A G29U C31G,0
18,A11C G22U G30A C31A G44C C46G,0.01
19,A14G G35C C37U,0.02
20,U9G G29C G36A,0.08
21,C10U G21C G29A G33U A39C,0.01
22,G1C G7U C8U U20C G27A G36C,0.05
23,G5A G27C C45A,0.01
